# In the supplement of paper PMC8728848:
# This is one part of the list.
# B1: CVN-E41G (protein)
# chain: MHHHHHHENLYFQSGNFSQACYNSAIQGSVLTSTCIRTNGGYNTSSIDLNSVIANVDGSLKWQGSNFIETCRNTQLAGSSELAAECKTRAQQFVSTKINLDDHIAAIDGTLKYE
# Columns and labels:
# Test in all cases: glycan array binding signal (z-score within array); higher = stronger binding
# Conditions in all cases: glycan notation: IUPAC condensed, linker removed; mutation: E41A
# [1] = biological target: Man(a1-2)Man(a1-3)[Man(a1-2)Man(a1-6)]Man
# How it was run: (§1)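 Columns mapping to the same glycan were averaged after glycan names were converted to IUPAC-condensed notation. The data come from 3228 arrays in the Consortium for Functional Glycomics database, limited to those with an available protein sequence. Binding is reported as a within-array Z-score averaged across arrays of one protein sequence and across linkers.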
# [2] = biological target: Man(a1-2)Man(a1-3)[Man(a1-2)Man(a1-6)]Man(a1-6)[Man(a1-2)Man(a1-2)Man(a1-3)]Man
# How it was run: as §1
# [3] = biological target: Man(a1-2)Man(a1-3)[Man(a1-2)Man(a1-6)]Man(a1-6)[Man(a1-2)Man(a1-2)Man(a1-3)]Man(b1-4)GlcNAc(b1-4)GlcNAc
# How it was run: as §1
# [4] = biological target: Man(a1-2)Man(a1-3)[Man(a1-6)]Man(a1-6)[Man(a1-2)Man(a1-3)]Man(b1-4)GlcNAc(b1-4)GlcNAc
# How it was run: as §1
# [5] = biological target: Man(a1-2)Man(a1-6)[Man(a1-3)]Man(a1-6)[Man(a1-2)Man(a1-2)Man(a1-3)]Man
# How it was run: as §1
# [6] = biological target: Man(a1-2)Man(a1-6)[Man(a1-3)]Man(a1-6)[Man(a1-2)Man(a1-2)Man(a1-3)]Man(b1-4)GlcNAc(b1-4)GlcNAc
# How it was run: as §1
# Man(a1-3)[Man(a1-6)]Man = biological target: Man(a1-3)[Man(a1-6)]Man
# How it was run: as §1
# [7] = biological target: Man(a1-3)[Man(a1-6)]Man(a1-6)[Man(a1-2)Man(a1-3)]Man(b1-4)GlcNAc(b1-4)GlcNAc
# How it was run: as §1
# [8] = biological target: Man(a1-3)[Man(a1-6)]Man(a1-6)[Man(a1-3)]Man
# How it was run: as §1
# [9] = biological target: Man(a1-3)[Man(a1-6)]Man(a1-6)[Man(a1-3)]Man(b1-4)GlcNAc(b1-4)GlcNAc
# How it was run: as §1
# [10] = biological target: Man(a1-3)[Man(a1-6)]Man(b1-4)GlcNAc(b1-4)GlcNAc
# How it was run: as §1
# [11] = biological target: Man(a1-3)[Man(a1-6)]Man(b1-4)GlcNAc(b1-4)[Fuc(a1-6)]GlcNAc
# How it was run: as §1
# Man(a1-6)Man = biological target: Man(a1-6)Man
# How it was run: as §1
# Man(b1-4)GlcNAc = biological target: Man(b1-4)GlcNAc
# How it was run: as §1
# MurNAc(b1-4)GlcNAc = biological target: MurNAc(b1-4)GlcNAc
# How it was run: as §1
# Neu5Ac(a2-3)Gal = biological target: Neu5Ac(a2-3)Gal
# How it was run: as §1
# [12] = biological target: Neu5Ac(a2-3)Gal(b1-3)GalNAc
# How it was run: as §1
# [13] = biological target: Neu5Ac(a2-3)Gal(b1-3)GalNAc(b1-3)Gal(a1-4)Gal(b1-4)Glc
# How it was run: as §1
# [14] = biological target: Neu5Ac(a2-3)Gal(b1-3)GalNAc(b1-4)Gal(b1-4)Glc
# How it was run: as §1
# [15] = biological target: Neu5Ac(a2-3)Gal(b1-3)GalNAc(b1-4)[Neu5Ac(a2-3)]Gal(b1-4)Glc
# How it was run: as §1
# [16] = biological target: Neu5Ac(a2-3)Gal(b1-3)GalNAc(b1-4)[Neu5Ac(a2-8)Neu5Ac(a2-3)]Gal(b1-4)Glc
# How it was run: as §1
# [17] = biological target: Neu5Ac(a2-3)Gal(b1-3)GalNAc6S
# How it was run: as §1
# [18] = biological target: Neu5Ac(a2-3)Gal(b1-3)GlcNAc
# How it was run: as §1
# [19] = biological target: Neu5Ac(a2-3)Gal(b1-3)GlcNAc(b1-2)Man
# How it was run: as §1
# [20] = biological target: Neu5Ac(a2-3)Gal(b1-3)GlcNAc(b1-2)Man(a1-3)[GlcNAc(b1-4)][Neu5Ac(a2-3)Gal(b1-3)GlcNAc(b1-2)Man(a1-6)]Man(b1-4)GlcNAc(b1-4)GlcNAc
# How it was run: as §1
# [21] = biological target: Neu5Ac(a2-3)Gal(b1-3)GlcNAc(b1-2)Man(a1-3)[Neu5Ac(a2-3)Gal(b1-3)GlcNAc(b1-2)Man(a1-6)]Man(b1-4)GlcNAc(b1-4)GlcNAc
# How it was run: as §1
# [22] = biological target: Neu5Ac(a2-3)Gal(b1-3)GlcNAc(b1-2)[Neu5Ac(a2-3)Gal(b1-3)GlcNAc(b1-4)]Man(a1-6)[Neu5Ac(a2-3)Gal(b1-3)GlcNAc(b1-2)Man(a1-3)]Man(b1-4)GlcNAc(b1-4)GlcNAc
# How it was run: as §1
# [23] = biological target: Neu5Ac(a2-3)Gal(b1-3)GlcNAc(b1-3)Gal(b1-3)GlcNAc
# How it was run: as §1
# [24] = biological target: Neu5Ac(a2-3)Gal(b1-3)GlcNAc(b1-3)Gal(b1-4)GlcNAc
# How it was run: as §1
# [25] = biological target: Neu5Ac(a2-3)Gal(b1-3)GlcNAc(b1-3)GalNAc
# How it was run: as §1
# [26] = biological target: Neu5Ac(a2-3)Gal(b1-3)GlcNAc(b1-6)GalNAc
# How it was run: as §1
# [27] = biological target: Neu5Ac(a2-3)Gal(b1-3)GlcNAc6S
# How it was run: as §1
# [28] = biological target: Neu5Ac(a2-3)Gal(b1-3)[Fuc(a1-4)]GlcNAc
# How it was run: as §1
# [29] = biological target: Neu5Ac(a2-3)Gal(b1-3)[Fuc(a1-4)]GlcNAc(b1-3)Gal(b1-3)[Fuc(a1-4)]GlcNAc
# How it was run: as §1
# [30] = biological target: Neu5Ac(a2-3)Gal(b1-3)[Fuc(a1-4)]GlcNAc(b1-3)Gal(b1-4)[Fuc(a1-3)]GlcNAc
# How it was run: as §1
# [31] = biological target: Neu5Ac(a2-3)Gal(b1-3)[GlcNAc(b1-6)]GalNAc
# How it was run: as §1
# [32] = biological target: Neu5Ac(a2-3)Gal(b1-3)[Neu5Ac(a2-6)]GalNAc
# How it was run: as §1
# [33] = biological target: Neu5Ac(a2-3)Gal(b1-3)[Neu5Ac(a2-6)]GlcNAc(b1-3)[Fuc(a1-3)[Gal(b1-4)]GlcNAc(b1-6)]Gal(b1-4)Glc
# How it was run: as §1
# [34] = biological target: Neu5Ac(a2-3)Gal(b1-3)]Neu5Ac(a2-3)Gal(b1-4)]GlcNAc
# How it was run: as §1
# Neu5Ac(a2-3)Gal(b1-4)Glc = biological target: Neu5Ac(a2-3)Gal(b1-4)Glc
# How it was run: as §1
# [35] = biological target: Neu5Ac(a2-3)Gal(b1-4)GlcNAc
# How it was run: as §1
# [36] = biological target: Neu5Ac(a2-3)Gal(b1-4)GlcNAc(b1-2)Man
# How it was run: as §1
# [37] = biological target: Neu5Ac(a2-3)Gal(b1-4)GlcNAc(b1-2)Man(a1-3)[GlcNAc(b1-4)][Neu5Ac(a2-3)Gal(b1-4)GlcNAc(b1-2)Man(a1-6)]Man(b1-4)GlcNAc(b1-4)GlcNAc
# How it was run: as §1
# [38] = biological target: Neu5Ac(a2-3)Gal(b1-4)GlcNAc(b1-2)Man(a1-3)[Neu5Ac(a2-3)Gal(b1-4)GlcNAc(b1-2)Man(a1-6)]Man(b1-4)GlcNAc(b1-4)GlcNAc
# How it was run: as §1
# [39] = biological target: Neu5Ac(a2-3)Gal(b1-4)GlcNAc(b1-2)Man(a1-3)[Neu5Ac(a2-3)Gal(b1-4)GlcNAc(b1-2)Man(a1-6)]Man(b1-4)GlcNAc(b1-4)[Fuc(a1-6)]GlcNAc
# How it was run: as §1
binder,measurement,setting,value
B1,glycan array binding signal (z-score),[1],8.35
same,glycan array binding signal (z-score),[2],10.5
same,glycan array binding signal (z-score),[3],0.418
same,glycan array binding signal (z-score),[4],5.81
same,glycan array binding signal (z-score),[5],9.42
same,glycan array binding signal (z-score),[6],6.36
same,glycan array binding signal (z-score),Man(a1-3)[Man(a1-6)]Man,-0.056
same,glycan array binding signal (z-score),[7],3.98
same,glycan array binding signal (z-score),[8],-0.066
same,glycan array binding signal (z-score),[9],1.19
same,glycan array binding signal (z-score),[10],-0.182
same,glycan array binding signal (z-score),[11],0.266
same,glycan array binding signal (z-score),Man(a1-6)Man,-0.081
same,glycan array binding signal (z-score),Man(b1-4)GlcNAc,-0.227
same,glycan array binding signal (z-score),MurNAc(b1-4)GlcNAc,-0.239
same,glycan array binding signal (z-score),Neu5Ac(a2-3)Gal,-0.233
same,glycan array binding signal (z-score),[12],-0.172
same,glycan array binding signal (z-score),[13],-0.197
same,glycan array binding signal (z-score),[14],-0.089
same,glycan array binding signal (z-score),[15],0.09
same,glycan array binding signal (z-score),[16],-0.2
same,glycan array binding signal (z-score),[17],-0.237
same,glycan array binding signal (z-score),[18],-0.202
same,glycan array binding signal (z-score),[19],-0.212
same,glycan array binding signal (z-score),[20],0.053
same,glycan array binding signal (z-score),[21],-0.062
same,glycan array binding signal (z-score),[22],0.509
same,glycan array binding signal (z-score),[23],-0.222
same,glycan array binding signal (z-score),[24],-0.181
same,glycan array binding signal (z-score),[25],-0.212
same,glycan array binding signal (z-score),[26],0.085
same,glycan array binding signal (z-score),[27],0.005
same,glycan array binding signal (z-score),[28],-0.222
same,glycan array binding signal (z-score),[29],-0.227
same,glycan array binding signal (z-score),[30],0.264
same,glycan array binding signal (z-score),[31],-0.178
same,glycan array binding signal (z-score),[32],-0.179
same,glycan array binding signal (z-score),[33],-0.094
same,glycan array binding signal (z-score),[34],-0.239
same,glycan array binding signal (z-score),Neu5Ac(a2-3)Gal(b1-4)Glc,-0.158
same,glycan array binding signal (z-score),[35],-0.212
same,glycan array binding signal (z-score),[36],0.044
same,glycan array binding signal (z-score),[37],-0.212
same,glycan array binding signal (z-score),[38],-0.223
same,glycan array binding signal (z-score),[39],-0.205
